In the supplement of paper PMC10338343:
± gives the standard deviation. Only a part is listed here, and it is no random draw.

System: MIWI (PIWIL1) piRISC loaded with L1MC piRNA (30 nt)
Assay: pre-steady-state target cleavage rate (min^-1); MIWI and MILI are mouse PIWI proteins and EfPiwi is from a freshwater sponge; tags in brackets are library labels; higher = faster piRNA-guided slicing of the target
Conditions: guide: L1MC piRNA 5'p-UAACUAAAUACUAUGCAAGCUGUAGGUCCU; auxiliary factor: 500 nM mouse GTSF1
Outline: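 A burst-and-steady-state fit was used to obtain the pre-steady-state cleavage rate. The input data were sequencing reads of uncleaved targets, normalised to depth and to weakly complementary targets, from a […] transcribed, DNA-blocked target RNA library mixed with 1 nM active affinity-purified piRISC holding one synthetic guide, with or without 500 nM GTSF1 partner protein, in HEPES–potassium acetate buffer at 33 °C for 0–8 or 0–960 min. Three trials were pooled and k3 was capped at 0.0001 min^-1.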
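Also: 1 nM active piRISC with 0.1 nM target library at 33 °C single turnover.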

Row | Sequence | pre-steady-state target cleavage rate
1 | UCCUGGAUGUGCAUGCAUAGUAUUUAGUAA | 0.0251 ± 0.0072
2 | UCGACGUACAGCUUGCAUAGAAUUUAGUUA | 0.406 ± 0.019
3 | UGGACCAACAGCUUGCAUAGUAAUUAGUUA | 0.986 ± 0.038
4 | UCCUGCUACAGCUUUGCAUAGUAUUUAGUUA | 0.698 ± 0.045
5 | UCCUGGAUCAGCAUGCAUAGUAUUUAGAAA | 0.129 ± 0.02
6 | UGGAGGUACAGCUUGCAUAGUAUUUAGUAA | 0.794 ± 0.065
7 | UCGAGCUACAGCUUGCAUAGUUUUUAGUUA | 0.446 ± 0.023
8 | UCCUCCUACAGCUUGCUUAGUAUUUACUUA | 0.52 ± 0.04
9 | UCGACCUACAGCAUGCAUAGUAUUUUGUUA | 0.818 ± 0.059
10 | UCGACCUACAGGUUGCAUAGUAUUUAGAUA | 0.392 ± 0.04
11 | UCCUCCUACACGUUGCAUAGUAUUUAGUAA | 0.507 ± 0.035
12 | UCCUGGUACAGGUUGCAUAGUAUUUUGUUA | 0.665 ± 0.12
13 | UCCUGGAUGUCCUUGCAUAGUAUUUAGUAUA | 0.022 ± 0.0086
14 | UCCUCCUUCAGCUUGCAUAGUAUUUAGUAA | 0.717 ± 0.04
15 | AGGACCUACAGCUUGCAUUCUAUUUAGUAA | 0.262 ± 0.057
16 | UCCUGGUACAGCUUGCUUAGUAUUUACUUA | 0.28 ± 0.041
17 | UCGACCUACAGCUAGCAUAGUAUUUAGUAA | 0.932 ± 0.058
18 | UCGACCUACAGCUUGCAUUGUAUAUAGUUA | 0.554 ± 0.033
19 | UCCUCCUACAGCUAGCAUAGUAUUUAGAUA | 0.339 ± 0.042
20 | AGGACCUACAGCUUGCAUAGUAUUUGGUUA | 0.794 ± 0.045

Row | Sequence | pre-steady-state target cleavage rate
21 | UCCUGGUACAGCUUGCGUAGUAUUUAGUUA | 0.728 ± 0.061
22 | UCCUGGUACAGCUUGCAUACUAUUAAGUUA | 0.13 ± 0.031
23 | UGGACCUAGUGCUUGCAUAGUAUUUACAAA | 0.0157 ± 0.0028
24 | AGGACCUACAGCUUGCAAAGUAAUUAGUUA | 0.681 ± 0.049
25 | AGGUCCUACAGCUUGCAUAGUAUUUAGUAA | 0.77 ± 0.055
26 | UCCUGGUACAGCUUGCAUAGUAAUUAGUAA | 0.359 ± 0.049
27 | UCCACCUACAGCAUGCAUAGUAUUAAGUUA | 0.655 ± 0.064
28 | UCCUGGAUGAGCUUGCAUAGAAUUUUGUUA | 0.118 ± 0.028
29 | UCCUGGAUGAGCAUGCAAAGUAUUUAGUUA | 0.283 ± 0.024
30 | UCCUCCUACAGCUUGCUUAGUUUUUAGUUA | 0.19 ± 0.017
31 | AGGACCAACAGCUUGCAUAGUAUUUAGUAA | 0.974 ± 0.079
32 | UCCUGGAUCAGCUUACAUAGUAUUUAGUUA | 1.22 ± 0.059
33 | UCCUGGAUGAGCUUGCAUAGUAUUUUCUUA | 0.13 ± 0.038
34 | UCCUGGUACAGCUUGCAUAGUAUUUUCUUA | 0.0818 ± 0.03
35 | UCCUCCUACACCUUGCAUAGUAUUUAGAAA | 0.602 ± 0.095
36 | UCCUGCUACAGCUUGCAUAGUAAAUAGUUA | 0.428 ± 0.052
37 | UCGUCCUAGAGCUUGCAUAGUAUUUAGUUA | 0.957 ± 0.041
38 | UCCACCUACAGCUUGCCUAGUAUUUAGUUA | 0.899 ± 0.052
39 | UCCUGGAUGACCUUGCUUAGUAUUUAGUUA | 0.0168 ± 0.0048
40 | UCCUGGAUCAGCUUGCAUAGUAAUUAGAAA | 0.237 ± 0.05

Same assay, conditions: guide: L1MC piRNA 5'p-UAACUAAAUACUAUGCAAGCUGUAGGUCCU; auxiliary factor: none (no GTSF1)

Row | Sequence | pre-steady-state target cleavage rate
41 | UCCUGGAUGUGCAUGCAUAGUAUUUAGUAA | 0.00346 ± 0.0025
42 | UCGACGUACAGCUUGCAUAGAAUUUAGUUA | 0.0269 ± 0.0061
43 | UGGACCAACAGCUUGCAUAGUAAUUAGUUA | 0.0398 ± 0.0096
44 | UCCUGCUACAGCUUUGCAUAGUAUUUAGUUA | 0.00988 ± 0.0021
45 | UCCUGGAUCAGCAUGCAUAGUAUUUAGAAA | 0.00297 ± 0.0019
46 | UGGAGGUACAGCUUGCAUAGUAUUUAGUAA | 0.0463 ± 0.0071
47 | UCGAGCUACAGCUUGCAUAGUUUUUAGUUA | 0.039 ± 0.0082
48 | UCCUCCUACAGCUUGCUUAGUAUUUACUUA | 0.0155 ± 0.003
49 | UCGACCUACAGCAUGCAUAGUAUUUUGUUA | 0.017 ± 0.0042
50 | UCGACCUACAGGUUGCAUAGUAUUUAGAUA | 0.0156 ± 0.0035
51 | UCCUCCUACACGUUGCAUAGUAUUUAGUAA | 0.00568 ± 0.0015
52 | UCCUGGUACAGGUUGCAUAGUAUUUUGUUA | 0.0157 ± 0.0042
53 | UCCUGGAUGUCCUUGCAUAGUAUUUAGUAUA | 0.00487 ± 0.0028
54 | UCCUCCUUCAGCUUGCAUAGUAUUUAGUAA | 0.0202 ± 0.0041
55 | AGGACCUACAGCUUGCAUUCUAUUUAGUAA | 0.00441 ± 0.0024
56 | UCCUGGUACAGCUUGCUUAGUAUUUACUUA | 0.019 ± 0.0045
57 | UCGACCUACAGCUAGCAUAGUAUUUAGUAA | 0.00995 ± 0.0034
58 | UCGACCUACAGCUUGCAUUGUAUAUAGUUA | 0.0131 ± 0.003
59 | UCCUCCUACAGCUAGCAUAGUAUUUAGAUA | 0.00473 ± 0.0022
60 | AGGACCUACAGCUUGCAUAGUAUUUGGUUA | 0.0742 ± 0.014

Row | Sequence | pre-steady-state target cleavage rate
61 | UCCUGGUACAGCUUGCGUAGUAUUUAGUUA | 0.0237 ± 0.0052
62 | UCCUGGUACAGCUUGCAUACUAUUAAGUUA | 0.00677 ± 0.0024
63 | UGGACCUAGUGCUUGCAUAGUAUUUACAAA | 0.00317 ± 0.0027
64 | AGGACCUACAGCUUGCAAAGUAAUUAGUUA | 0.0124 ± 0.0036
65 | AGGUCCUACAGCUUGCAUAGUAUUUAGUAA | 0.0647 ± 0.012
66 | UCCUGGUACAGCUUGCAUAGUAAUUAGUAA | 0.00888 ± 0.0027
67 | UCCACCUACAGCAUGCAUAGUAUUAAGUUA | 0.00909 ± 0.0019
68 | UCCUGGAUGAGCUUGCAUAGAAUUUUGUUA | 0.0105 ± 0.0047
69 | UCCUGGAUGAGCAUGCAAAGUAUUUAGUUA | 0.00587 ± 0.0031
70 | UCCUCCUACAGCUUGCUUAGUUUUUAGUUA | 0.011 ± 0.0019
71 | AGGACCAACAGCUUGCAUAGUAUUUAGUAA | 0.0722 ± 0.014
72 | UCCUGGAUCAGCUUACAUAGUAUUUAGUUA | 0.0236 ± 0.0066
73 | UCCUGGAUGAGCUUGCAUAGUAUUUUCUUA | 0.00825 ± 0.0029
74 | UCCUGGUACAGCUUGCAUAGUAUUUUCUUA | 0.00733 ± 0.0035
75 | UCCUCCUACACCUUGCAUAGUAUUUAGAAA | 0.00482 ± 0.0022
76 | UCCUGCUACAGCUUGCAUAGUAAAUAGUUA | 0.00667 ± 0.0021
77 | UCGUCCUAGAGCUUGCAUAGUAUUUAGUUA | 0.0436 ± 0.0072
78 | UCCACCUACAGCUUGCCUAGUAUUUAGUUA | 0.0293 ± 0.0058
79 | UCCUGGAUGACCUUGCUUAGUAUUUAGUUA | 0.0045 ± 0.0018
80 | UCCUGGAUCAGCUUGCAUAGUAAUUAGAAA | 0.00401 ± 0.0033
